Results: the supplement of paper PMC4967469

Key:
Test in all cases: Viability of human cancer cell lines after 72 h of drug (GDSC screen)
[1] = compound: CS(=O)(=O)N1CCN(Cc2cc3nc(-c4cccc5[nH]ncc45)nc(N4CCOCC4)c3s2)CC1 [GDC0941]; conditions: top dose 4 µM; screen: GDSC drug entry 1527; top dose inferred
Description: (§1)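 Human cancer cell lines in 384-well plates, medium with 10% serum, drug for 72 h over a 256-fold dose range (nine 2-fold or five 4-fold steps up to the top dose). Adherent lines were fixed and stained with the nucleic acid dye Syto60, suspension lines read with resazurin; signal relative to control wells, capped at 0 and 100%. One two-parameter sigmoid per drug and line, fitted in a mixed model over all curves with the slope shared within a line.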

[2] = compound: C[C@]12O[C@H](C[C@]1(O)CO)n1c3ccccc3c3c4c(c5c6ccccc6n2c5c31)CNC4=O [CEP-701]; conditions: top dose 2 µM; top dose inferred
Description: as §1

[3] = compound: CC(C)[C@H](C(=O)Nc1ccc(C(=O)NO)cc1)c1ccccc1 [AR-42]; conditions: top dose 5.12 µM; top dose inferred
Description: as §1

[4] = compound: Cc1ccc(Nc2nccc(N(C)c3ccc4c(C)n(C)nc4c3)n2)cc1S(N)(=O)=O [Pazopanib]; conditions: top dose 8 µM
Description: as §1

[5] = compound: CC(C)C[C@@H](C=O)NC(=O)[C@H](CC(C)C)NC(=O)[C@H](CC(C)C)NC(=O)OCc1ccccc1 [MG-132]; conditions: top dose 1 µM
Description: as §1

[6] = compound: Cn1cc(C2=C(c3ccc(Cl)cc3Cl)C(=O)NC2=O)c2ccccc21 [SB 216763]; conditions: top dose 10 µM; top dose inferred
Description: as §1

Cell Line	AUC [1]	IC50 [1] [µM]	AUC [2]	IC50 [2] [µM]	AUC [3]	IC50 [3] [µM]	AUC [4]	IC50 [4] [µM]	AUC [5]	IC50 [5] [µM]	AUC [6]	IC50 [6] [µM]
SK-N-DZ (neuroblastoma, adherent)	0.892	> 4	0.633	0.29	0.708	1.22	0.679	1.57	0.912	> 1	0.979	> 10
SK-N-FI (neuroblastoma, adherent)	0.861	3.35	0.736	0.586	0.582	0.536	0.988	> 8	0.861	0.837	0.959	> 10
SK-UT-1 (soft tissue, adherent)	0.715	0.95	0.667	0.349	0.969	> 5.12	0.989	> 8	0.5	0.0624	0.986	> 10
SNB75 (glioma, adherent)	0.661	0.862	0.841	> 2	0.792	3.65	0.714	2.72	0.837	> 1	0.979	> 10
SNU-C1 (large intestine, suspension)	0.631	0.681	0.577	0.224	0.659	1.1	0.977	> 8	0.977	> 1	0.98	> 10
ST486 (Burkitt lymphoma, suspension)	0.989	> 4	0.617	0.251	0.345	0.126	0.971	> 8	0.844	0.6	0.979	> 10
SU-DHL-4 (B-cell lymphoma, suspension)	0.71	0.807	0.748	0.5	0.256	0.0819	0.94	7.05	0.697	0.187	0.997	> 10
SUP-M2 (anaplastic large cell lymphoma, suspension)	0.519	0.279	0.446	0.092	0.271	0.0867	0.991	> 8	0.812	0.387	0.99	> 10
SW684 (fibrosarcoma, adherent)	0.833	> 4	0.761	1.04	0.963	> 5.12	0.739	3.37	0.782	0.637	0.889	> 10
SW962 (urogenital system, adherent)	0.513	0.273	0.534	0.158	0.655	0.965	0.888	> 8	0.889	> 1	0.98	> 10
TE-6 (oesophagus, adherent)	0.877	> 4	0.928	> 2	0.982	> 5.12	0.984	> 8	0.895	> 1	0.983	> 10
TE-9 (oesophagus, adherent)	0.815	2.3	0.652	0.336	0.984	> 5.12	0.9	> 8	0.725	0.281	0.986	> 10
TGBC1TKB (biliary tract, adherent)	0.894	> 4	0.909	> 2	0.719	1.33	0.944	> 8	0.868	0.905	0.963	> 10
TGW (neuroblastoma, adherent)	0.962	> 4	0.596	0.22	0.224	0.0584	0.988	> 8	0.87	0.715	0.985	> 10
TK10 (kidney, adherent)	0.689	0.956	0.637	0.325	0.967	> 5.12	0.894	> 8	0.709	0.279	0.95	> 10
TK (B-cell lymphoma, suspension)	0.873	3.26	0.615	0.252	0.408	0.183	0.961	> 8	0.802	0.44	0.99	> 10
TUR (B-cell lymphoma, suspension)	0.486	0.23	0.338	0.046	0.395	0.169	0.939	> 8	0.987	> 1	0.984	> 10
WSU-DLCL2 (B-cell lymphoma, suspension)	0.992	> 4	0.592	0.213	0.862	3.22	0.912	> 8	0.891	0.822	0.982	> 10
YT (lymphoid neoplasm, suspension)	0.969	> 4	0.35	0.0515	0.286	0.0889	0.957	> 8	0.968	> 1	0.992	> 10
no-10 (glioma, adherent)	0.855	> 4	0.906	> 2	0.741	1.86	0.978	> 8	0.497	0.0614	0.976	> 10
no-11 (glioma, adherent)	0.87	> 4	0.82	1.55	0.845	> 5.12	0.881	> 8	0.798	0.619	0.968	> 10

A lower IC50 marks a more sensitive line; a fit beyond the top or the lowest dose is shown as a bound at that dose. The AUC spans the tested range (256-fold, ending at the top dose) of the same fit: 1 means no effect, lower means more sensitive. For part of these data: An inferred top dose was calculated from the reported fits. For part of these data: Where an entry number is given, a second screen of the drug exists; the two often differ.
